Data on twelve molecules can be found in US20250179172A1 (HAINAN SIMCERE ZAIMING PHARMACEUTICAL, published 2025).

The target of experiment [1] is T1, monkey CD5, full length, on HEK293T cells (monkey).
T1 construct: also called HEK293T-monkey CD5
T1 chain: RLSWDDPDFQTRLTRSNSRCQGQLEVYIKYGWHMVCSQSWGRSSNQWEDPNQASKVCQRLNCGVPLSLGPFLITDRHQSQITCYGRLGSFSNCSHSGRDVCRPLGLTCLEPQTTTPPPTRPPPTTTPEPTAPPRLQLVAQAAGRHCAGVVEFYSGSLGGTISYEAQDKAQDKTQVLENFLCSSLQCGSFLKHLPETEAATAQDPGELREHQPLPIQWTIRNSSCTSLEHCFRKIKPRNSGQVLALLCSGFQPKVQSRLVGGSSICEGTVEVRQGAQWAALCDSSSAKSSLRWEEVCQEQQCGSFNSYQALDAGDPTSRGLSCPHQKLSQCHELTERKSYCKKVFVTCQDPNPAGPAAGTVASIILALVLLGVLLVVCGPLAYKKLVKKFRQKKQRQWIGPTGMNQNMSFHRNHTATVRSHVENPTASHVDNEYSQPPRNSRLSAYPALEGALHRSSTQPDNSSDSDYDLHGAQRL
As to the kind of experiment: FACS on HEK293T-monkey CD5 cells. An excerpt:
The desired cells were expanded to a logarithmic growth phase in a T-75 cell culture flask. Adherent cells CHO-K1-human CD5 were removed from the culture medium by pipetting, and the cells were washed twice with a PBS buffer, digested with trypsin, and washed twice with a PBS buffer again after the digestion was stopped. For suspension cells Jurkat, the medium supernatant was discarded by direct centrifugation, and the cell pellet was washed twice with PBS. After the cells obtained in the last step were subjected to cell counting, the cell pellet was resuspended to 2×10⁶ cells/mL with a blocking solution [PBS+2% (w/w) BSA] and added to a 96-well FACS reaction plate with 50 μL/well. The VHH-hFc or control antibody was added with 50 μL/well, and the plate was incubated on ice for 2 h. […] After the plate was centrifuged and washed for 5 times with a PBS buffer, the results were assayed and analyzed by FACS (FACS Canto™, purchased from BD Biosciences). Data analysis was performed by software (BD FACSDiva) to obtain the mean fluorescence intensity (MFI) of the cells. Analysis was then performed by software (GraphPad Prism8), data were fitted, and EC₅₀ values were calculated. […] The same method was used to assay the binding reactions of 1 nM and 10 nM VHH-hFc antibodies with Jurkat cells and endogenous CD5-negative Raji cells, and to assay the binding reactions of 1 nM and 10 nM VHH-hFc antibodies with CHO-K1 cells and CHO-K1-human CD5.
HEK293T-monkey CD5 cells were subjected to the FACS assay and data analysis according to the method described in Example 4.2.

Experiment [2] addresses T2, murine CD5-His (Sino Biologicals, Cat. No. 50403-M08H) (murine, UniProt P13379 24-371).
T2 construct: also called murine CD5 protein; not shown: His tag
T2 sequence (looked up): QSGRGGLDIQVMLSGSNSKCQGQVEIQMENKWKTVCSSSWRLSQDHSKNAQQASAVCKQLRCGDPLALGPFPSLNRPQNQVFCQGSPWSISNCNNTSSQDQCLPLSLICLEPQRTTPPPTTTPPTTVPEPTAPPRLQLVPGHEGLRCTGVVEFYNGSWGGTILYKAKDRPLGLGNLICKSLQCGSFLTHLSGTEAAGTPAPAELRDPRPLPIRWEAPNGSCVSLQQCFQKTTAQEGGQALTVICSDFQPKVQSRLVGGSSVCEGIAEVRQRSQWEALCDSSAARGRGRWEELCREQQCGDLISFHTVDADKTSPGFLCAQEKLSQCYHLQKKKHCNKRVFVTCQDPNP
Briefly: ELISA on murine CD5-His, antibody 0.001 nM. The method, then:
(§1) The binding activity of the H65 antibody prepared above with human CD5 protein was subjected to ELISA assay. A purchased commercial antigen (human CD5-His) was diluted with PBS to obtain a final concentration of 2 μg/mL, and then added to a 96-well ELISA plate with 100 µL/well. The plate was sealed with a plastic film and incubated at 4° C. over the night, washed twice with PBS in the next day, added with a blocking solution [PBS+2% (w/w) BSA] and blocked at room temperature for 2 h. The blocking solution was drained out, and 100 nM of the H65 antibody or negative control antibody hIgG1 after gradient dilution was added, namely, the obtained product was the antibody Anti-HEL-hIgG1 against hen egg lysozyme (purchased from Biointron, Cat. No. B117901) with 50 μl per well. After incubation for 2 h at 37° C., the plate was washed for 3 times with PBS. A secondary antibody labeled with HRP (horseradish peroxidase) (A0170, purchased from Sigma) was added. After incubation for 2 h at 37° C., the plate was washed for 5 times with PBS. A TMB substrate was added with 50 μL/well and incubated at room temperature for 30 min, then a stop solution (1.0 N HCl) was added with 50 μL/well.
To assay the species cross-activity of the VHH-hFc, ELISA plates were coated with commercial murine CD5-His (CD5 (Sino Biologicals, Cat. No. 50403-M08H)), and ELISA assays were performed according to the method described in Example 2.2. […] The negative control is hIgG1 and NB145 serves as the positive control (NB145 has been verified to be bound to murine CD5); data in the table are values of OD_{450 nm}.
(In general: An ELISA detects its analyte on a solid surface through an enzyme-linked reagent.)

Experiment [3] addresses T3, human CD5 (Arg25-Pro372)-His protein (Acro, Cat. No. CD5-H52H5) (human, UniProt P06127 25-372).
T3 construct: range 25-372; also called human CD5-His; hCD5-His; not shown: His tag
T3 sequence (looked up): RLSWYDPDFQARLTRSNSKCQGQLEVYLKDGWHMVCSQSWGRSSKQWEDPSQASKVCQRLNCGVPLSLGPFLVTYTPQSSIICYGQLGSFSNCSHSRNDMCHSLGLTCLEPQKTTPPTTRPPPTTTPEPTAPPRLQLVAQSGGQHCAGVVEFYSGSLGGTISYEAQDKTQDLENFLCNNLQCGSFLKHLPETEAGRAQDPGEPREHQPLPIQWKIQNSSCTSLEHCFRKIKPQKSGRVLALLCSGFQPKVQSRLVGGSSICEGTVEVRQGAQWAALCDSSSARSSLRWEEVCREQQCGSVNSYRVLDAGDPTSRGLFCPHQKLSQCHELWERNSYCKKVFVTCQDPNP
As to the kind of experiment: ELISA, plate coated with human CD5-His. On the procedure:
as §1

B1: S005-NB144-31 VHH-hFc (Fc fusion)
chain: EVQVVESGGGLVQPGGSLRLSCAASGFTLDYYAIGWFRQAPGKEREGLSCISTSGGSTNYADSVKGRFTISRDNAKNTVYLQMNSLKPEDTAVYYCAASSFWDCAVVGTGSPKTGHLESVFGSWGQGTQVTVSS[human IgG1 Fc with changes not printed]
notes: VHH fused to human IgG1 Fc; no linker stated; also called S002-NB144-31
Regarding B1, in experiment [1], the EC50 worked out at 27 nM and the “Max MFI” value amounted to 19600 MFI. This molecule also returned an OD450 in experiment [2] of 0.1 OD450.

B2: S005-NB144-43 VHH-hFc (Fc fusion)
chain: QVQLVESGGGLVQPGGSLRLSCAASGFTWDYYAIGWFRQAPGKEREGVSCIDSSGGSINYLDSVKGRFTVSRDNAKNTVYLQMDSLKPEDTAIYYCAASSYWDCAVPDTGSPKTGHLESYFGSWGQGTQVIVSS[human IgG1 Fc with changes not printed]
notes: VHH fused to human IgG1 Fc; no linker stated; also called S002-NB144-43
As to B2, in experiment [1], the midpoint of the response, the EC50, lay at 12.8 nM and the “Max MFI” value came to 22900 MFI. The OD450 in experiment [2] came out at 0.1 OD450.

B3: S005-NB144-6 VHH-hFc (Fc fusion)
chain: QVQLVESGGGLVQAGGSLRLSCAASGSIFSISVMGWYRQAPGKERETVAVISSGGSTYYADSVKGRFTISRDNAKNTLYLQMNSLKPEDTAVYYCNADFETASGSPLYESWGQGTQVTVSS[human IgG1 Fc with changes not printed]
notes: VHH fused to human IgG1 Fc; no linker stated
As to B3, in experiment [1], the “Max MFI” value was 150 MFI and the binding result is given as “no binding”. This molecule also showed an OD450 in experiment [2] of 0.09 OD450.

B4: S005-NB144-73 VHH-hFc (Fc fusion)
chain: EVQVVESGGGLVQAGGSLRLSCAASGDTICISAMYWYRQAPGKAREMVAAITSGGSTYYEDSVMGRFTIFRENAKNTVYLQMNSLKPEDTAVYYCNADIAGHNCSGYLKEYWGQGTQVTVSA[human IgG1 Fc with changes not printed]
notes: VHH fused to human IgG1 Fc; no linker stated; also called S002-NB144-73
In the case of B4, in experiment [1], the response was half-maximal at 33.2 nM (EC50) and the “Max MFI” value stood at 17200 MFI. In addition, in experiment [2], the OD450 came out at 0.1 OD450.

B5: S005-NB145-3 VHH-hFc (Fc fusion)
chain: QVQLVESGGGLVQPGGSLRLSCAASGFSLDYYAIGWFRQAPGKEREGVSYISPSDGRTYYADSVKGRFTISRDNAKNTVYLQMNSLKPEDTAVYYCATDWGSTSFDYGLKLSPTQYGYWGQGTQVTVSS[human IgG1 Fc with changes not printed]
notes: as for B3
B5: in experiment [1], the “Max MFI” value stood at 110 MFI and the binding result is given as “no binding”. Moreover, the OD450 in experiment [2] is 0.09 OD450.

B6: S005-NB145-92 VHH-hFc (Fc fusion)
chain: EVQLVESGGGLVQPGGSLRLSCAASGFSLDYYAIGWFRQAPGKEREGVSYISASDGSTYYADSVKGRFTISRDNAKNTVYLQMNSLKPEDTAVYYCATDWGSGSFNYGLRLSPTQYDYWGQGTQVTVSS[human IgG1 Fc with changes not printed]
notes: as for B3
With B6, in experiment [1], the “Max MFI” value was 198 MFI and the binding result is listed as “no binding”. Also, the OD450 in experiment [2] came to 0.12 OD450.

B7: S005-NB144-4 VHH-hFc (Fc fusion)
chain: EVQVVESGGGLVQAGGSLRLSCAASGSIFSINAMGWYRQAPGKEREVVAAISNGGNTYYEDSVMGRFTISRDNAKGTLYLQMNGLKPEDTAVYYCNADTVVGGGLLTEVWGQGTLVTVSS[human IgG1 Fc with changes not printed]
notes: as for B3
Take B7: in experiment [1], the “Max MFI” value was found to be 75 MFI and the binding result is on record as “no binding”. This molecule also came in with an OD450 in experiment [2] of 0.09 OD450.

B8: S005-NB145-74 VHH-hFc (Fc fusion)
chain: EVQLVESGGGLVQAGGSLRLSCAASESTFSITAMGWYRQAPGKQRELVAAITSPGGSTNYADSVKGRFTISRDNAKNTMLLQMNSLKPEDTAVYYCNADINHGSGYYTVSWGQGTQVTVSS[human IgG1 Fc with changes not printed]
notes: as for B3
As to B8, in experiment [1], the “Max MFI” value was determined as 76 MFI and the binding result is “no binding”. For the same molecule, in experiment [2], the OD450 worked out at 0.12 OD450.

B9: S005-NB144-3 VHH-hFc (Fc fusion)
chain: QLQLVESGGGLVQPGGSLRLSCAASGFTFSSYAMSWYRQAPGKERELVAAITSAGGSTTYADSVKDRFTISRDNAKNTVSLQMNSLKPEDTAVYYCNAYCTGYVCHEGGYDYWGQGTQVTVSS[human IgG1 Fc with changes not printed]
notes: VHH variable region recombined into vector BI3.4-huIgG1 with signal peptide and human IgG1 Fc; no linker between VHH and Fc is stated
Consider B9, for which, in experiment [1], the “Max MFI” value was found to be 76 MFI and the binding result was “no binding”. This molecule also yielded an OD450 in experiment [2] of 0.11 OD450.

B10: S005-NB144-7 VHH-hFc (Fc fusion)
chain: EVQVVESGGGLVQAGGSLRLSCAASGSIFSINLLGWYRQAPGKERESVAILSSGGSTYYADSVKGRFTISRDNVKNMLYLQMNSLKPEDTAVYYCNAVGGIATLRDYWGQGTQVTVSS[human IgG1 Fc with changes not printed]
notes: as for B3
Take B10: in experiment [1], the “Max MFI” value was found to be 102 MFI and the binding result is “no binding”. Moreover, the OD450 in experiment [2] came out at 0.09 OD450.

B11: S005-NB145-22 VHH-hFc (Fc fusion)
chain: QVQLVESGGGLVQAGGSLRLSCAVSGRTLSTVVVGWFRQTPGREREFVAVSRSGGATGYADSVKDRFTISRDNAKNTVALQMNSLKPEDTAVYYCAGRGSGLYGSSWYNQIQEYDGWGQGTQVTVSS[human IgG1 Fc with changes not printed]
notes: as for B3
Regarding B11, in experiment [1], the “Max MFI” value amounted to 114 MFI and the binding result is “no binding”. Further, in experiment [2], the OD450 was determined as 0.09 OD450.

B12: H65 scFv-hFc (Fc fusion)
chain: NIQLVQSGPELKKPGETVKISCKASGYTFTNYGMNWVKQAPGKGLRWMGWINTHTGEPTYADDFKGRFAFSLETSASTAYLQINNLKNEDTATYFCTRRGYDWYFDVWGAGTTVTVSSGGGGSGGGGSGGGGSDIKMTQSPSSMYASLGERVTITCKASQDINSYLSWFHHKPGKSPKTLIYRANRLVDGVPSRFSGSGSGQDYSLTISSLDYEDMGIYYCQQYDESPWTFGGGTKLEMK[human IgG1 Fc with changes not printed]
notes: also called H65 antibody
Take B12: the concentration giving a half-maximal response (EC50 (read off the curve)) in experiment [3] was ~0.03 nM.

The EC50 is the concentration giving half of the maximal effect. What is called EC50 (read off the curve) is the midpoint of the concentration-response curve.
